# Some of the results follow.
# What was measured:
# Assay in all cases: glycan array binding signal (z-score within array); higher = stronger binding
# Conditions in all cases: glycan notation: IUPAC condensed, linker removed
# [1] = molecular target: Gal(b1-4)GlcNAc(b1-2)[Gal(b1-4)GlcNAc(b1-6)]Man(a1-6)[Gal(b1-4)GlcNAc(b1-2)Man(a1-3)]Man(b1-4)GlcNAc(b1-4)[Fuc(a1-6)]GlcNAc
# Outline: (§1)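 The Consortium for Functional Glycomics database supplied 3228 glycan arrays, of which those lacking an available protein sequence were dropped. The binding signal, a within-array Z-score, was averaged across arrays of the same protein sequence and across linkers. Negative scores can be read as non-binding.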
# [2] = molecular target: Gal(b1-4)GlcNAc(b1-2)[Gal(b1-4)GlcNAc(b1-6)]Man(a1-6)[GlcNAc(b1-4)][Gal(b1-4)GlcNAc(b1-2)Man(a1-3)]Man(b1-4)GlcNAc(b1-4)GlcNAc
# Outline: as §1
# [3] = molecular target: Gal(b1-4)GlcNAc(b1-2)[Gal(b1-4)GlcNAc(b1-6)]Man(a1-6)[GlcNAc(b1-4)][Gal(b1-4)GlcNAc(b1-2)[Gal(b1-4)GlcNAc(b1-4)]Man(a1-3)]Man(b1-4)GlcNAc(b1-4)[Fuc(a1-6)]GlcNAc
# Outline: as §1
# [4] = molecular target: Gal(b1-4)GlcNAc(b1-3)Gal(b1-3)GalNAc
# Outline: as §1
# [5] = molecular target: Gal(b1-4)GlcNAc(b1-3)Gal(b1-3)GlcNAc
# Outline: as §1
# [6] = molecular target: Gal(b1-4)GlcNAc(b1-3)Gal(b1-4)Glc
# Outline: as §1
# [7] = molecular target: Gal(b1-4)GlcNAc(b1-3)Gal(b1-4)GlcNAc
# Outline: as §1
# [8] = molecular target: Gal(b1-4)GlcNAc(b1-3)Gal(b1-4)GlcNAc(b1-2)Man(a1-3)[Gal(b1-4)GlcNAc(b1-3)Gal(b1-4)GlcNAc(b1-2)Man(a1-6)]Man(b1-4)GlcNAc(b1-4)GlcNAc
# Outline: as §1
# [9] = molecular target: Gal(b1-4)GlcNAc(b1-3)Gal(b1-4)GlcNAc(b1-2)Man(a1-3)[Gal(b1-4)GlcNAc(b1-3)Gal(b1-4)GlcNAc(b1-2)Man(a1-6)]Man(b1-4)GlcNAc(b1-4)[Fuc(a1-6)]GlcNAc
# Outline: as §1
# [10] = molecular target: Gal(b1-4)GlcNAc(b1-3)Gal(b1-4)GlcNAc(b1-2)[Gal(b1-4)GlcNAc(b1-3)Gal(b1-4)GlcNAc(b1-6)]Man(a1-6)[Gal(b1-4)GlcNAc(b1-3)Gal(b1-4)GlcNAc(b1-2)Man(a1-3)]Man(b1-4)GlcNAc(b1-4)GlcNAc
# Outline: as §1
# [11] = molecular target: Gal(b1-4)GlcNAc(b1-3)Gal(b1-4)GlcNAc(b1-2)[Gal(b1-4)GlcNAc(b1-3)Gal(b1-4)GlcNAc(b1-6)]Man(a1-6)[Gal(b1-4)GlcNAc(b1-3)Gal(b1-4)GlcNAc(b1-2)Man(a1-3)]Man(b1-4)GlcNAc(b1-4)[Fuc(a1-6)]GlcNAc
# Outline: as §1
# [12] = molecular target: Gal(b1-4)GlcNAc(b1-3)Gal(b1-4)GlcNAc(b1-3)Gal(b1-4)GlcNAc
# Outline: as §1
# [13] = molecular target: Gal(b1-4)GlcNAc(b1-3)Gal(b1-4)GlcNAc(b1-3)Gal(b1-4)GlcNAc(b1-2)Man(a1-3)[Gal(b1-4)GlcNAc(b1-3)Gal(b1-4)GlcNAc(b1-3)Gal(b1-4)GlcNAc(b1-2)Man(a1-6)]Man(b1-4)GlcNAc(b1-4)GlcNAc
# Outline: as §1
# [14] = molecular target: Gal(b1-4)GlcNAc(b1-3)Gal(b1-4)GlcNAc(b1-3)Gal(b1-4)GlcNAc(b1-2)Man(a1-3)[Gal(b1-4)GlcNAc(b1-3)Gal(b1-4)GlcNAc(b1-3)Gal(b1-4)GlcNAc(b1-2)Man(a1-6)]Man(b1-4)GlcNAc(b1-4)[Fuc(a1-6)]GlcNAc
# Outline: as §1
# [15] = molecular target: Gal(b1-4)GlcNAc(b1-3)Gal(b1-4)GlcNAc(b1-3)Gal(b1-4)GlcNAc(b1-2)[Gal(b1-4)GlcNAc(b1-3)Gal(b1-4)GlcNAc(b1-3)Gal(b1-4)GlcNAc(b1-6)]Man(a1-6)[Gal(b1-4)GlcNAc(b1-3)Gal(b1-4)GlcNAc(b1-3)Gal(b1-4)GlcNAc(b1-2)Man(a1-3)]Man(b1-4)GlcNAc(b1-4)[Fuc(a1-6)]GlcNAc
# Outline: as §1
# [16] = molecular target: Gal(b1-4)GlcNAc(b1-3)Gal(b1-4)GlcNAc(b1-3)Gal(b1-4)GlcNAc(b1-3)Gal(b1-4)GlcNAc(b1-2)Man(a1-3)[Gal(b1-4)GlcNAc(b1-3)Gal(b1-4)GlcNAc(b1-3)Gal(b1-4)GlcNAc(b1-3)Gal(b1-4)GlcNAc(b1-2)Man(a1-6)]Man(b1-4)GlcNAc(b1-4)GlcNAc
# Outline: as §1
# [17] = molecular target: Gal(b1-4)GlcNAc(b1-3)Gal(b1-4)GlcNAc(b1-3)Gal(b1-4)GlcNAc(b1-3)Gal(b1-4)GlcNAc(b1-2)Man(a1-3)[Gal(b1-4)GlcNAc(b1-3)Gal(b1-4)GlcNAc(b1-3)Gal(b1-4)GlcNAc(b1-3)Gal(b1-4)GlcNAc(b1-2)Man(a1-6)]Man(b1-4)GlcNAc(b1-4)[Fuc(a1-6)]GlcNAc
# Outline: as §1
# [18] = molecular target: Gal(b1-4)GlcNAc(b1-3)Gal(b1-4)GlcNAc(b1-3)Gal(b1-4)GlcNAc(b1-3)Gal(b1-4)GlcNAc(b1-2)[Gal(b1-4)GlcNAc(b1-3)Gal(b1-4)GlcNAc(b1-3)Gal(b1-4)GlcNAc(b1-3)Gal(b1-4)GlcNAc(b1-6)]Man(a1-6)[Gal(b1-4)GlcNAc(b1-3)Gal(b1-4)GlcNAc(b1-3)Gal(b1-4)GlcNAc(b1-3)Gal(b1-4)GlcNAc(b1-2)Man(a1-3)]Man(b1-4)GlcNAc(b1-4)[Fuc(a1-6)]GlcNAc
# Outline: as §1
# [19] = molecular target: Gal(b1-4)GlcNAc(b1-3)Gal(b1-4)GlcNAc(b1-3)Gal(b1-4)GlcNAc(b1-3)Gal(b1-4)GlcNAc(b1-3)Gal(b1-4)GlcNAc(b1-2)Man(a1-3)[Gal(b1-4)GlcNAc(b1-3)Gal(b1-4)GlcNAc(b1-3)Gal(b1-4)GlcNAc(b1-3)Gal(b1-4)GlcNAc(b1-3)Gal(b1-4)GlcNAc(b1-2)Man(a1-6)]Man(b1-4)GlcNAc(b1-4)GlcNAc
# Outline: as §1
# [20] = molecular target: Gal(b1-4)GlcNAc(b1-3)Gal(b1-4)GlcNAc(b1-3)Gal(b1-4)GlcNAc(b1-3)Gal(b1-4)GlcNAc(b1-3)Gal(b1-4)GlcNAc(b1-2)Man(a1-3)[Gal(b1-4)GlcNAc(b1-3)Gal(b1-4)GlcNAc(b1-3)Gal(b1-4)GlcNAc(b1-3)Gal(b1-4)GlcNAc(b1-3)Gal(b1-4)GlcNAc(b1-2)Man(a1-6)]Man(b1-4)GlcNAc(b1-4)[Fuc(a1-6)]GlcNAc
# Outline: as §1
# [21] = molecular target: Gal(b1-4)GlcNAc(b1-3)Gal(b1-4)GlcNAc(b1-3)Gal(b1-4)GlcNAc(b1-3)Gal(b1-4)GlcNAc(b1-3)Gal(b1-4)GlcNAc(b1-2)[Gal(b1-4)GlcNAc(b1-3)Gal(b1-4)GlcNAc(b1-3)Gal(b1-4)GlcNAc(b1-3)Gal(b1-4)GlcNAc(b1-3)Gal(b1-4)GlcNAc(b1-6)]Man(a1-6)[Gal(b1-4)GlcNAc(b1-3)Gal(b1-4)GlcNAc(b1-3)Gal(b1-4)GlcNAc(b1-3)Gal(b1-4)GlcNAc(b1-3)Gal(b1-4)GlcNAc(b1-2)Man(a1-3)]Man(b1-4)GlcNAc(b1-4)[Fuc(a1-6)]GlcNAc
# Outline: as §1
# [22] = molecular target: Gal(b1-4)GlcNAc(b1-3)Gal(b1-4)GlcNAc(b1-3)Gal(b1-4)GlcNAc(b1-3)Gal(b1-4)GlcNAc(b1-3)Gal(b1-4)GlcNAc(b1-3)Gal(b1-4)GlcNAc(b1-2)Man(a1-3)[Gal(b1-4)GlcNAc(b1-3)Gal(b1-4)GlcNAc(b1-3)Gal(b1-4)GlcNAc(b1-3)Gal(b1-4)GlcNAc(b1-3)Gal(b1-4)GlcNAc(b1-3)Gal(b1-4)GlcNAc(b1-2)Man(a1-6)]Man(b1-4)GlcNAc(b1-4)GlcNAc
# Outline: as §1
# [23] = molecular target: Gal(b1-4)GlcNAc(b1-3)Gal(b1-4)GlcNAc(b1-3)GalNAc
# Outline: as §1
binder,measurement,setting,value
DrGal3 (Danio rerio) (protein) MDLSDALDAPPQQNNQQAGGPVWPGQPANPVWPGQPANPTWPGQPNQPAWPGQPNQQWPGQPGQPTAPGWPGPAPQTGPYGAPGQAPQVLTVPLDFPLQNGAYNKMLITINGEVKPNAKQFTVNLRRGNDIAFHINPRFSEGGKPVIVRNSMIGNNWGREERELPSFPFVPGKPFEMKILITDTEYKVAVNKSHLLEFKHRVFELNQITGLSIYNDVTLSTVNVETLQ,glycan array binding signal (z-score),[1],-0.212
same,glycan array binding signal (z-score),[2],-0.222
same,glycan array binding signal (z-score),[3],-0.255
same,glycan array binding signal (z-score),[4],-0.153
same,glycan array binding signal (z-score),[5],-0.196
same,glycan array binding signal (z-score),[6],0.327
same,glycan array binding signal (z-score),[7],0.587
same,glycan array binding signal (z-score),[8],1.41
same,glycan array binding signal (z-score),[9],2.07
same,glycan array binding signal (z-score),[10],0.04
same,glycan array binding signal (z-score),[11],1.7
same,glycan array binding signal (z-score),[12],1.12
same,glycan array binding signal (z-score),[13],3.47
same,glycan array binding signal (z-score),[14],4.37
same,glycan array binding signal (z-score),[15],3.07
same,glycan array binding signal (z-score),[16],4.2
same,glycan array binding signal (z-score),[17],5.59
same,glycan array binding signal (z-score),[18],4.6
same,glycan array binding signal (z-score),[19],6.65
same,glycan array binding signal (z-score),[20],4.37
same,glycan array binding signal (z-score),[21],5.52
same,glycan array binding signal (z-score),[22],5.72
same,glycan array binding signal (z-score),[23],-0.046
